Laboratory results: patent US20220389066A1 (Affibody, published 2022)

T1: HMGB1(disulfide), disulfide linked form of full-length HMGB1 (HMGB1C23-C45C106h) (rat, UniProt P63159 1-215, disulfide C23-C45; C106 reduced)
T1 construct: unlabelled in Biacore and Attana; also called b-HMGB1(disulfide)
T1 sequence: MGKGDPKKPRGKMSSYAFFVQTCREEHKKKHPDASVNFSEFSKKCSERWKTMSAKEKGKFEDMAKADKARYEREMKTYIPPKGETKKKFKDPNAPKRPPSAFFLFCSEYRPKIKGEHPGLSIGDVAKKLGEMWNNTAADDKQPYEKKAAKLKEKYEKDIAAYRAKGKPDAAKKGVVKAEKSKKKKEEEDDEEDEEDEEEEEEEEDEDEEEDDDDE

T2: HMGB1(red), fully reduced form of full-length HMGB1 (HMGB1C23hC45hC106h) (rat, UniProt P63159 1-215, all cysteines reduced (C23h, C45h, C106h))
T2 construct: Produced by HMGBiotech; also called HMGB1(reduced); b-HMGB1(red)
T2 sequence: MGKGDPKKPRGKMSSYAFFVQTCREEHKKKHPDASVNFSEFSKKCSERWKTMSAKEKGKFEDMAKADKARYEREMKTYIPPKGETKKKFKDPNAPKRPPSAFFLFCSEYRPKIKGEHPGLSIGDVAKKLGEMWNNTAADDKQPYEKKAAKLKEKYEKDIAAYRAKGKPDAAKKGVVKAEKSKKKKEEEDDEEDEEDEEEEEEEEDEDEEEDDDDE

T3: boxA(disulfide), disulfide linked form of A-box domain of HMGB1 (human, UniProt P09429 1-89, disulfide C23-C45)
T3 construct: also called b-boxA(disulfide)
T3 sequence: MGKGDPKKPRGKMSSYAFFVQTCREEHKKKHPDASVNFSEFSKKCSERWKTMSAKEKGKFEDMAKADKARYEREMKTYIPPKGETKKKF


Tests used:
[1] = target: T1, HMGB1(disulfide), disulfide linked form …; experiment: QCM (Attana A200); polypeptide captured on HSA, HMGB1(disulfide) injected; 1:1 or 1:2 model, average KD
Protocol: (§1) Binding analysis: The Attana A200® biosensor was used to characterize interactions between the dimeric polypeptides (SEQ ID NO:38-48) and HMGB1(red) under reducing conditions and/or HMGB1(disulfide) under non-reducing conditions. The monomeric ZA3812 (SEQ ID NO:35) was included for comparison. The experiment was performed as a capture assay, in which HSA was immobilized on Attana's sensor chip Low-NonSpecific-Binding (LNB). Immobilization was performed using amine coupling. The instrument has two sensor surfaces and HSA was immobilized on both surfaces. Around 110 Hz of HSA was stably immobilized on the surfaces.
(§2) In the kinetic experiment, HBS-EP+/−2 mM DTT was used as running buffer and the flow rate was 25 μl/min at 22° C. In each cycle, one polypeptide was tested against one concentration of HMGB1. […] The analyte HMGB1(reduced) was diluted in HBS-EP+2 mM DTT within a concentration range of 1.33 to 21.4 μg/ml, and the analyte HMGB1(disulfide) was diluted in HBS-EP buffer within a concentration range of 0.62 to 10 μg/ml. Both analytes were subsequently injected for 84 s over both channel A and B, where channel B was used as a blank surface for curve subtraction. Buffer injections were also made for surface subtractions. After dissociation, the surfaces were regenerated with a 30 s injection of 100 mM HCl followed by a 30 s injection of 20 mM NaOH. Data was collected by Attester Software and subsequently processed in the Evaluation Software. To calculate the kinetic parameters (kₐ and kd) and affinity constant (KD), the experimental data were fitted using a 1:1 or a 1:2 binding model.
(§3) Binding analysis of dimeric polypeptides targeting HMGB1: The interactions of a set of dimeric polypeptides, as well as one monomeric polypeptide, with HMGB1(reduced) and/or HMGB1(disulfide) were analyzed using an Attana A200® biosensor instrument by injecting various concentrations of HMGB1 over a surface containing captured polypeptides in fusion with ABD bound by immobilized HSA.

[2] = target: T2, HMGB1(red), fully reduced form of …; experiment: QCM (Attana A200); polypeptide captured on HSA, HMGB1(red) injected, 2 mM DTT; 1:1 or 1:2 model, relevant kd (most represented)
Protocol: as §1, §2, §3

[3] = target: T1, HMGB1(disulfide), disulfide linked form …; experiment: QCM (Attana A200); polypeptide captured on HSA, HMGB1(disulfide) injected; 1:1 or 1:2 model, relevant kd (most represented)
Protocol: as §1, §2, §3

[4] = target: T4, human serum albumin (HSA) (human, UniProt P02768 25-609); experiment: QCM (Attana A200); capture on immobilized HSA
T4 construct: Immobilized on sensor chips to capture ABD (PP013) fusions
T4 sequence (P02768 25-609 limits assumed): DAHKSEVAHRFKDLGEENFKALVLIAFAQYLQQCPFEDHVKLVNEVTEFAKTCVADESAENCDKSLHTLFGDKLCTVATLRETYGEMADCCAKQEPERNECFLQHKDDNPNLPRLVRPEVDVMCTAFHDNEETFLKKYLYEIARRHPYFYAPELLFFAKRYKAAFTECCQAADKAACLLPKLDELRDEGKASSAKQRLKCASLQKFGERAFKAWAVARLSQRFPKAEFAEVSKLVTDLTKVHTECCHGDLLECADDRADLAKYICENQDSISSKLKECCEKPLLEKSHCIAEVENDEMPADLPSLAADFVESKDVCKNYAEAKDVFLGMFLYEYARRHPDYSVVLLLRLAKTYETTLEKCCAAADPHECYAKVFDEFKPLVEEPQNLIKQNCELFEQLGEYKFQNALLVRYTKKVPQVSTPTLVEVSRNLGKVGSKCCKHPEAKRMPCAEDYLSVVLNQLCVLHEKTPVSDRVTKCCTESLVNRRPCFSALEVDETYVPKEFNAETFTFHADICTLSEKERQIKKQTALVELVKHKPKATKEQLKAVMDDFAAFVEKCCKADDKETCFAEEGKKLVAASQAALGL

[5] = target: T2, HMGB1(red), fully reduced form of …; experiment: QCM (Attana A200); polypeptide captured on HSA, HMGB1(red) injected, 2 mM DTT; 1:1 or 1:2 model, average KD
Protocol: as §1, §2, §3

[6] = target: T2, HMGB1(red), fully reduced form of …; experiment: cell-based or functional assay
[7] = target: T5, GST-boxA(red), reduced form of A-box domain of HMGB1 with N-terminal GST tag (human, cysteines reduced); experiment: SPR (Biacore 2000); target immobilized on CM5, His6-Z variant injected 50-1350 nM; 1:1 model
T5 construct: Used biotinylated (b-GST-boxA(red)) in ELISA; also called b-GST-boxA(red)
Protocol: (§4) Binding analysis of mutated Z variants: A binding analysis was performed using a Biacore 2000 instrument. All alanine mutated Z variants, together with the original Z variant ZH 01, were analyzed against GST-boxA(red), HMGB1(red), boxA(disulfide) and HMGB1(disulfide). The immobilizations and Biacore analyses were performed essentially as described in Example 3. However, in these analyses, the different targets were directly coupled to separate flow cells of different CM5 chip surfaces and a flow rate of 30 μl/min was used. The ligand immobilization levels on the surfaces were 1410 RU for GST-boxA(red), 1380 RU for HMGB1(red), 540 RU for boxA(disulfide) and 2900 RU for HMGB1(disulfide). The analytes, i.e. the Z variants, were each diluted in HBS-EP buffer (or in HBS-EP+2 mM DTT for use in analysis with reduced targets GST-boxA(red) and HMGB1(red)), within a concentration range of 50 to 1350 nM and injected for 3 min, followed by dissociation in running buffer for 35 min. No regeneration buffer was used in the analyses. Instead, the dissociation time was enough for all binders to dissociate from the chip surfaces. HBS-EP was used as running buffer for targets boxA(disulfide) and HMGB1(disulfide) while HBS-EP+2 mM DTT was used for reduced targets GST-boxA(red) and HMGB1(red). The dissociation constants were calculated as in Example 3.
(§5) Binding analysis of mutated Z variants: The interaction of HMGB1 with ZH 01 and the 13 mutated variants thereof was analyzed in a Biacore instrument by injecting various concentrations of the Z variants over surfaces containing immobilized GST-boxA(red), HMGB1(red), boxA(disulfide) and HMGB1(disulfide), respectively. A summary of the dissociation constants from the experiments, which were obtained by using a 1:1 interaction model, is given in Table 12.

[8] = target: T2, HMGB1(red), fully reduced form of …; experiment: as above
Protocol: as §4, §5

[9] = target: T1, HMGB1(disulfide), disulfide linked form …; experiment: as above
Protocol: as §4, §5

[10] = target: T3, boxA(disulfide), disulfide linked form …; experiment: as above
Protocol: as §4, §5

Binder | Kd [1] [nM] | koff [2] [s⁻¹] | koff [3] [s⁻¹] | binding result [4] | Kd [5] [nM] | IC50 of inhibition of HMGB1 induced cell migration [6] [nM] | Kd [7] [nM] | Kd [8] [nM] | Kd [9] [nM] | Kd [10] [nM]
ZZA4054, Z(boxA)-L2-Z(boxA)-ABD (designed binder, Homodimer of ZH27 with PP013) AEAKYAKEDWDAFWEIIWLPNLTDAQQRAFIYKLEDDPSQSSELLSEAKKLNDSQAPKGAPGGGGSTSAEAKYAKEDWDAFWEIIWLPNLTDAQQRAFIYKLEDDPSQSSELLSEAKKLNDSQAPKASGSLAEAKEAANAELDSYGVSDFYKRLIDKAKTVEGVEALKDAILAALP | 93 | 0.013 | 0.00063 | binds | 150 | > 1 |  |  |  | 
ZAZ4057 (designed binder) AEAKYAKEDWDAFWEIIWLPNLTDAQQRAFIYKLEDDPSQSSELLSEAKKLNDSQAPKASGSLAEAKEAANAELDSYGVSDFYKRLIDKAKTVEGVEALKDAILAALPGTGGGGSAEAKYAKEDWDAFWEIIWLPNLTDAQQRAFIYKLEDDPSQSSELLSEAKKLNDSQAPK | 31 | 0.0096 | 0.00065 | binds | 21 | > 1 |  |  |  | 
ZZA4011, Z(boxA)-L2-Z(boxB)-ABD (designed binder, Heterodimer of ZH01 and ZH31 with PP013) VDAKYAKEDWDAFWEIIWLPNLTDAQQRAFIYKLEDDPSQSSELLSEAKKLNDSQAPKGAPGGGGSTSVDAKYAKEAWLAEQEIWQLPNLTEAQFQAFILKLIDDPSQSSELLSEAKKLNDSQAPKASGSLAEAKEAANAELDSYGVSDFYKRLIDKAKTVEGVEALKDAILAALP | 110 | 0.00049 | 0.0011 | binds | 4.2 | ≤ 0.1 |  |  |  | 
His6-tagged ZH 01, MGSSHHHHHHLQ-[ZH 01]-VD (designed binder) MGSSHHHHHHLQVDAKYAKEDWDAFWEIIWLPNLTDAQQRAFIYKLEDDPSQSSELLSEAKKLNDSQAPKVD |  |  |  |  |  |  | 25 | 12 | 170 | 380
His6-tagged ZH14 (ZH 01 D9A), MGSSHHHHHHLQ-[ZH14]-VD (designed binder) MGSSHHHHHHLQVDAKYAKEAWDAFWEIIWLPNLTDAQQRAFIYKLEDDPSQSSELLSEAKKLNDSQAPKVD |  |  |  |  |  |  | 36 | 18 | 150 | 770
His6-tagged ZH16 (ZH 01 D11A), MGSSHHHHHHLQ-[ZH16]-VD (designed binder) MGSSHHHHHHLQVDAKYAKEDWAAFWEIIWLPNLTDAQQRAFIYKLEDDPSQSSELLSEAKKLNDSQAPKVD |  |  |  |  |  |  | 21 | 10 | 130 | 660
His6-tagged ZH20 (ZH 01 W18A), MGSSHHHHHHLQ-[ZH20]-VD (designed binder) MGSSHHHHHHLQVDAKYAKEDWDAFWEIIALPNLTDAQQRAFIYKLEDDPSQSSELLSEAKKLNDSQAPKVD |  |  |  |  |  |  | 130 | 90 | 1500 | 50000
His6-tagged ZH21 (ZH 01 D24A), MGSSHHHHHHLQ-[ZH21]-VD (designed binder) MGSSHHHHHHLQVDAKYAKEDWDAFWEIIWLPNLTAAQQRAFIYKLEDDPSQSSELLSEAKKLNDSQAPKVD |  |  |  |  |  |  | 110 | 64 | 670 | 1500
His6-tagged ZH22 (ZH 01 A25S), MGSSHHHHHHLQ-[ZH22]-VD (designed binder) MGSSHHHHHHLQVDAKYAKEDWDAFWEIIWLPNLTDSQQRAFIYKLEDDPSQSSELLSEAKKLNDSQAPKVD |  |  |  |  |  |  | 17 | 9 | 190 | 330
His6-tagged ZH23 (ZH 01 Q27A), MGSSHHHHHHLQ-[ZH23]-VD (designed binder) MGSSHHHHHHLQVDAKYAKEDWDAFWEIIWLPNLTDAQARAFIYKLEDDPSQSSELLSEAKKLNDSQAPKVD |  |  |  |  |  |  | 67 | 41 | 870 | 790
